The campaign covered roughly 310,000 compounds. About 14,000 (4.5%) showed an effect of 50% or more. The effect is printed as a negative number. Some of the results follow.
Target: human ether-à-go-go-related gene (hERG) potassium channel (human, UniProt Q12809)
Assay: primary screen, population patch clamp on CHO cells stably expressing hERG
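Further: peak tail current of the secondary pulse compared with the same well before compound.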

Sequence of human ether-à-go-go-related gene (hERG) potassium channel (Q12809 whole entry, looked up): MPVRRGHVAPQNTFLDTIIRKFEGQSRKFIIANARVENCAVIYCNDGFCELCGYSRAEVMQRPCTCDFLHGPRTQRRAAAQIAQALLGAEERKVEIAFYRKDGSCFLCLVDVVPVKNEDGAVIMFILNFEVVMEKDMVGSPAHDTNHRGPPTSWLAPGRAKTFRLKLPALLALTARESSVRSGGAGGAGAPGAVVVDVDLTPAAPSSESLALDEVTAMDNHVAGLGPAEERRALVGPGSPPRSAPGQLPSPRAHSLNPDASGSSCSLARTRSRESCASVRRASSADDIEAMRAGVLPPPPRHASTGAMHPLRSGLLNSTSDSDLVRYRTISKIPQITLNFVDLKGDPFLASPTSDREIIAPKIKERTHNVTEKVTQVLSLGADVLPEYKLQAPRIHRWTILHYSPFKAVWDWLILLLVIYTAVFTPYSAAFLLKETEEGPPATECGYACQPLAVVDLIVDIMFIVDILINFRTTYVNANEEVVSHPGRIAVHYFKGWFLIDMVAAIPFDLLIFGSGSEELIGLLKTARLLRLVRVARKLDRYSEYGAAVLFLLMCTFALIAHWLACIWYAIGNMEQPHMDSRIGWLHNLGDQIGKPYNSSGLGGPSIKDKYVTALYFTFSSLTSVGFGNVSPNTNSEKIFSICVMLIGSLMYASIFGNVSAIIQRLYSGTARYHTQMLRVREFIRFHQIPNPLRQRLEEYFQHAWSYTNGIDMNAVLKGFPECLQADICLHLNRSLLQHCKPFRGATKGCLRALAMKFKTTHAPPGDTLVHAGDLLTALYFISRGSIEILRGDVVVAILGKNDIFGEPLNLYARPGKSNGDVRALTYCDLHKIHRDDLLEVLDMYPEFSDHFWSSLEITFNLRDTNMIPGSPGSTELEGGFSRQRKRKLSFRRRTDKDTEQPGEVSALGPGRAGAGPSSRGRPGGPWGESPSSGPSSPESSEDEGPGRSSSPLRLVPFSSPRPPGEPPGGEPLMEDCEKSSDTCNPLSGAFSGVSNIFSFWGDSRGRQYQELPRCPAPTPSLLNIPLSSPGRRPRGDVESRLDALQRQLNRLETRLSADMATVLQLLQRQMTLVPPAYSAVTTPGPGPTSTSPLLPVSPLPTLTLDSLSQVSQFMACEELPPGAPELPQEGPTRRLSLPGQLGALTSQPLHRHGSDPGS

Row | SMILES | hERG current change (%, negative = inhibition) at 10uM
1 | CCCCOc1ccc(C(=O)N(Cc2ccccc2)C2CCS(=O)(=O)C2)cc1 (centres unmarked) | -31.8%
2 | Cc1ncc([N+](=O)[O-])n1CCOC(=O)c1ccccc1 | 8.09%
3 | CC(C)(C)c1ccc(C(=O)N2CCC(C(=O)c3ccccc3)CC2)cc1 | -16.7%
4 | Cc1ccc(/C=C2\C(=O)NC(=O)N(Cc3ccccc3Cl)C2=O)o1 | 21.5%
5 | O=C(COc1ccc(Br)cc1)N1CCc2ccccc21 | 20.2%
6 | COc1ccccc1CN(C)C(=O)C(NC(=O)Cc1cccc2ccccc12)C(C)C (centres unmarked) | 16.7%
7 | C=CCn1c(SCC(=O)NCc2ccco2)nnc1C1CCCCC1 | 4.13%
8 | O=C(NC(=O)c1ccccc1)Nc1cccc(S(=O)(=O)N2CCCCC2)c1 | -43.4%
9 | Cc1nc2ccccc2n1Cc1ccccc1Br | -9.21%
10 | Cc1ccc(C(C)C)cc1OCCCCN1CCCC1 | -49%
11 | CCOc1ccc(NC(=S)N2CCC(C(N)=O)CC2)cc1 | 1.31%
12 | Cc1ccc(/C=N/NC(=O)Cc2cccn2C)s1 | -7.36%
13 | CCOc1cc(N2CCOCC2)c(OCC)cc1NC(=O)Cc1cccc2ccccc12 | -7.49%
14 | CCCN(CCC)C(=O)CC(c1ccc(F)cc1)c1ccco1 (centres unmarked) | -8.46%
15 | O=C(Cc1ccccc1[N+](=O)[O-])N1CCc2ccccc2C1 | 1.78%
16 | O=C(C1CCCN1S(=O)(=O)c1ccc(Cl)c(Cl)c1)N1CCOCC1 (centres unmarked) | 2.37%
17 | COCC(=O)N1CCC(Oc2ccc(C(=O)NC3CCOC(C)(C)C3)cc2)CC1 (centres unmarked) | 7.18%
18 | O=c1nc(N2CCCCC2)nc2n1CCO2 | 1.75%
19 | Cc1ncc(CO)c(/C=N/NC(=O)c2cc3c(s2)CCCC3)c1O | 7.39%
20 | CCC(C(=O)NCC1CCCO1)N(C(=O)c1snc(C(N)=O)c1N)c1ccc(Cl)cc1 (centres unmarked) | 19.9%
21 | Clc1ccc(CN2CCN(c3ncccn3)CC2)cc1Cl | 9.98%
22 | O=S(=O)(Cc1ccccc1Cl)NCCc1ccccc1 | -14.1%
23 | O=[N+]([O-])c1ccc(C2OCCO2)cc1CS(=O)(=O)c1ccccc1 | 4.91%

Row | SMILES | hERG current change (%, negative = inhibition) at 10uM
24 | Cc1cccc(N2CCN(S(=O)(=O)c3ccc4c(c3)NC(=O)CO4)CC2)c1C | 13%
25 | CN1CCN(CCCNC(=O)c2cn(C3CCCCC3)c(=O)c3c2c2ccccc2n3C)CC1 | -3.14%
26 | Cc1cccc(-c2nnc(SCCC(=O)N3CCOCC3)o2)c1 | -5.85%
27 | COc1ccc(C(=O)c2nc3ccccc3n2C(C)C)cc1OC | -16.5%
28 | CC(=O)Nc1ccc(OC(F)(F)Cl)cc1 | 3.3%
29 | COc1ccc(Nc2cc(Nc3cc(OC)c(OC)c(OC)c3)ncn2)cc1 | -8.37%
30 | CCc1ccc(N=CC23c4ccccc4C(c4ccccc42)C2C(=O)N(c4ccc(OC)cc4)C(=O)C23)cc1 (centres unmarked) | 8.42%
31 | Cc1nnc(N(C)C(=O)Cc2ccc3c(c2)OCO3)s1 | 6.4%
32 | C/C(=N\O)c1ccc2c(c1)CC(C)O2 (centres unmarked) | 13.7%
33 | O=C(CCNC(=O)c1ccco1)Nc1ccc(F)c(Cl)c1 | 23.1%
34 | CS(=O)(=O)c1ccc(Cl)c(NC(=O)CSc2nnc(C3CC3)n2C2CC2)c1 | -2.61%
35 | CCn1c(SCc2ccc(C(=O)OC)o2)nnc1-c1c[nH]c2ccccc12 | -20.3%
36 | COc1ccc(C(=O)NCC(=O)OCC(=O)Nc2ccc(C)c(S(=O)(=O)N(C)C)c2)cc1OC | -5.57%
37 | C#CCN(Cc1ccccc1)S(=O)(=O)C=C | -7.33%
38 | COc1ccc(/C=N/NC(=O)c2cc(C(C)(C)C)[nH]n2)cc1COc1ccc(F)cc1F | -7.91%
39 | C#CCOc1ccc(/C=C2/C(=O)N(c3cccc(C(=O)O)c3)N=C2C)cc1OC | -2.13%
40 | O=C(COC(=O)c1cc([N+](=O)[O-])ccc1N1CCOCC1)NCc1ccc(Cl)cc1Cl | -63%
41 | N/C(=N\OC(=O)CCCN1C(=O)c2ccccc2C1=O)c1ccc(Cl)cc1 | -11.8%
42 | N/C(Cc1ccc(Cl)c(Cl)c1)=N\OC(=O)c1ccc(Br)o1 | 12.6%
43 | CN(NC(=O)c1ccc(Cl)cc1Cl)C1=NS(=O)(=O)c2ccccc21 | -2.53%
44 | COc1ccc(C(=O)NCc2cc3ccccc3n2C)cc1 | 28.6%
45 | Cc1ccc(C)c(N2CCN(C(=O)Cc3ccc(-n4c(=O)[nH]c5ccsc5c4=O)cc3)CC2)c1 | -31.2%
46 | O=C(NCC1CCCO1)C1CC1(c1ccccc1)c1ccccc1 (centres unmarked) | 6.02%

Row | SMILES | hERG current change (%, negative = inhibition) at 10uM
47 | CCN1C(=O)[C@H]2[C@@H](c3ccc(C)cc3)N3C(=O)N(c4cccc(Cl)c4)C(=O)[C@@]3(CC(C)C)[C@H]2C1=O | 0.452%
48 | COC(=O)C1C(C(C)C)N(c2ccccc2)OC1(C)O (centres unmarked) | -11.3%
49 | Cc1ccc(OCCC(=O)O)cc1 | 13.4%
50 | COc1ccc(CCNC(=O)NS(=O)(=O)c2ccc(C)cc2)cc1OC | 10.5%
51 | NS(=O)(=O)c1ccc(NC(=O)C2Cc3ccccc3CN2C(=O)c2ccco2)cc1 (centres unmarked) | 6.57%
52 | Cc1cccc(NC(=O)N2CCCC2)c1 | 12.4%
53 | CC(=O)CCC(C)=O | 16.4%
54 | O=C(COC(=O)C1CCN(c2ccc(C(F)(F)F)cn2)CC1)c1ccccc1 | -6.49%
55 | COc1ccc2oc(=O)c(C(=O)N3CCCc4ccccc43)cc2c1 | -63.1%
56 | COc1ccc([C@H]2CC(=O)C=C(c3c(OC)cccc3OC)C2)cc1 | -11.2%
57 | O=C(C1CCC1)N1CCc2cc(S(=O)(=O)NCC3COc4ccccc4O3)ccc21 (centres unmarked) | -6.69%
58 | CC(=O)c1ccc(S(=O)(=O)NCC(=O)Nc2nc3ccccc3[nH]2)cc1 | -8.14%
59 | FC(F)Oc1ccc(NC(=S)Nc2ccc3cn[nH]c3c2)cc1 | -79.5%
60 | Cc1cc(C)n2nc(SCc3nnc(SCc4ccccc4Cl)s3)nc2n1 | 9.19%
61 | Cc1ccc(C)c(S(=O)(=O)Nc2ccc(C(N)=O)cc2)c1 | 14.9%
62 | COc1ccc(C(=O)CCC(=O)Nc2cccnc2)c(OC)c1 | 7.08%
63 | COC(=O)C1=C(C)N(C)C(=S)NC1c1ccccc1 (centres unmarked) | -7%
64 | CCNc1nc(NC(C)CC)nc(Oc2ccc(OCC)nn2)n1 (centres unmarked) | -8.07%
65 | COC(=O)c1ccccc1NC(=O)c1cc2ccccc2o1 | 22.1%
66 | CN1CCN(C(=O)CN(Cc2ccc(Cl)cc2)S(C)(=O)=O)CC1 | -6.56%
67 | Cc1nnc(-c2ccccc2)c[n+]1[O-] | 12.2%
68 | COC(=O)c1sccc1NC(=O)Nc1ccc(F)cc1 | 9.98%
69 | CCN1CCN(Cc2ccc(NC(=O)c3cc(NC(=O)C4=NN(c5ccccc5)C(=O)C4)cc(OC)c3)cc2C(F)(F)F)CC1 | 5.18%

Row | SMILES | hERG current change (%, negative = inhibition) at 10uM
70 | O=C(c1cc([N+](=O)[O-])ccc1Cl)N1CCN(c2ccc([N+](=O)[O-])cc2)CC1 | -73.6%
71 | O=C1Nc2ccccc2C12OCCS2 (centres unmarked) | 9.86%
72 | O=C(CN1CCN(Cc2ccc(F)cc2Cl)C1=O)NCCc1ccccc1 | -18%
73 | O=C(CSc1ncnc2nc[nH]c12)N1CCOCC1 | 3.67%
74 | O=C(CCCCCNC(=O)N1CCn2c1nc1ccccc12)NCc1ccc(F)cc1 | -0.879%
75 | COc1ccc(/C=N/NC(=O)c2ccccc2OCc2ccccc2)c(OC)c1 | -53.8%
76 | COc1ccc2nc(SCC(=O)NC3CCCc4ccccc43)[nH]c2c1 (centres unmarked) | 0.444%
77 | N#Cc1nc(-c2ccc(F)cc2)oc1N1CCC(C(N)=O)CC1 | -32.1%
78 | Fc1ccc(NC(=S)NC2CC3CCC(C2)N3Cc2ccco2)cc1 (centres unmarked) | -12.6%
79 | Cc1ccccc1NC(=O)C(C)OC(=O)CNS(=O)(=O)c1ccc(C#N)cc1 (centres unmarked) | -4.3%
80 | COc1ccc(S(=O)(=O)N2CCC(C(=O)NCCC(=O)Nc3nccs3)CC2)cc1 | 13.3%
81 | CCCN(C(=O)c1nc2nccc(C)n2n1)c1c(N)n(Cc2ccccc2)c(=O)[nH]c1=O | 8.27%
82 | CCCN(CCC)C(=O)CC(c1ccccc1)c1ccc(C)cc1O (centres unmarked) | -11%
83 | CCOC(=O)C(CC)Sc1nc2c(cnn2-c2ccc(F)cc2)c(=O)[nH]1 (centres unmarked) | 20.7%
84 | O=C(NC1CC2CCCC(C1)N2C(=O)NC1CCCCC1)c1ccc(F)cc1 (centres unmarked) | 4.98%
85 | CCOc1ccc2c(c1)sc1nc(C(=O)OC)cc(=O)n12 | -12.9%
86 | Cc1cccc(Cn2c(SCCO)nc3c2c(=O)n(C)c(=O)n3C)c1 | -22.9%
87 | CCOc1ccc(S(=O)(=O)NCCC(=O)OC(C)C(=O)N2CCc3ccccc32)cc1 (centres unmarked) | -22.6%
88 | CN(C)S(=O)(=O)c1cc(NC(=O)c2ccc(-n3ccnc3)c([N+](=O)[O-])c2)ccc1Cl | -16.3%
89 | Cn1[nH]c(C(F)(F)F)cc1=O | 7.42%

From article PMC4336329 (PLoS ONE, 2015)
